PubChem BioAssay AID624296 (National Center for Advancing Translational Sciences (NCATS), 2012)
“And” between values parts separate entries of the source, which are not always exact repeats. Equal values may be shown once. Among all 350,000 compounds or so, about 9,900 (2.8%) were called active. This list was built around the results that the source calls inconclusive (neither active nor inactive); the mix of calls is not that of the screen. Calls follow the shape of the dose curve; as a rule, active = well fitted activation curve with a large enough effect; inconclusive = small, poorly fitted or top-dose-only effect; inactive = no such curve, though single readings can be large or run the other way. Potencies of inconclusive entries are doubtful fits and often do not repeat.

Experiment: A quantitative high throughput screen for small molecules that induce DNA re-replication in MCF 10a normal breast cells. Also: nearly all actives have a fitted effect of over 50% in size. As to activity, positive = re-replication: % of control where 0% means no effect.
Settings: MCF 10A DNA re-replication, Hoechst nuclear intensity, 48 h; activity, positive = re-replication: at 46.1 µM (top of the series)
Potency is read from the fitted curve at half-maximal effect; tags tell the direction and shape of the fitted curve.

SMILES	activity, positive = re-replication	Potency
O=S(Cc1cc(Oc2ccccc2)nc(-c2ccccc2)n1)c1ccccc1 (centres undefined)	inactive: 7.33%	
CCN(CC)CCn1c2ccccc2c2cnc(N)c(C#N)c21		inconclusive: 10.3 µM [activator, partial curve]
COc1ccc(CCNc2ccc(C)cc2)cc1		inconclusive: 8.2 µM [activator, partial curve, poor fit]
O=C1CCC[C@@H]2[C@@H](Cc3ccccc3)[C@H](N3CCN(c4ccccc4)CC3)C[C@@H]3CCN1[C@@H]32		inconclusive: 25.9 µM [activator, single point]
CC1(O)CC(c2ccc(Cl)cc2)=NN1C(=O)c1ccc([N+](=O)[O-])cc1 (centres undefined)		inconclusive: 3.66 µM [activator, single point]
O=[N+]([O-])c1ccc(O)c(/C=N/Nc2ccccc2Cl)c1		inconclusive: 2.31 µM [activator, partial curve, poor fit]
NC(=Nc1ccccc1)N(c1ccccc1)c1ccccc1		active: 11.6 µM
CCCOc1ccccc1-n1sc2c(c1=S)-c1cc(OC)cc3c1N(C(=O)C3=O)C2(C)C		inconclusive: 6.51 µM [activator, full curve]
CCN1CCN(CC(=O)c2c(C)n(C)c3ccc(OC)cc23)CC1		inconclusive: 3.55 µM [activator, partial curve, poor fit]
Cc1cccn2c(=O)c3cc(C(=O)NCCc4ccccc4)c(=N)n(Cc4ccco4)c3nc12		active: 13 µM
CC(NCc1cc(Br)ccc1OCC(=O)NCc1ccccc1)c1ccccc1 (centres undefined)		inconclusive: 14.6 µM [activator, single point]
CCn1ncc(C2=NOC(C(=O)Nc3ccc(C)cc3)C2)c1C (centres undefined)	inactive: 8.19%	
COc1ccc(NC(=O)CCNS(=O)(=O)c2ccc3c(c2)c(=O)n(C)c(=O)n3C)c(OC)c1	inconclusive: 101% [activator]	
COc1ccc(/C=N/NC(=O)Nc2cccc3nsnc23)cc1OC		inconclusive: 16.4 µM [activator, partial curve]
FC(F)(F)c1cc(-c2ccco2)nc(NCc2ccco2)n1		inconclusive: 29.1 µM [activator, single point]
CC(C)c1[nH]nc2c1C(C1C=CCCC1)C(C#N)=C(N)O2 (centres undefined)		inconclusive: 18.4 µM [activator, single point]
CCCn1c(N)c(C(=O)COC(=O)c2cccc(S(=O)(=O)N3CCOCC3)c2)c(=O)[nH]c1=O	inactive: 9.54%	
CN(C)CCCNC(=O)/C(=C/c1ccc(-c2ccc([N+](=O)[O-])cc2)o1)NC(=O)c1ccccc1		inconclusive: 20.6 µM [activator, single point]
Cn1c(SCC(=O)c2ccc3c(c2)Cc2ccccc2-3)nnc1-c1ccccc1		inconclusive: 16.4 µM [activator, single point]
COC(=O)c1ccc(CSC(=N)N)o1		inconclusive: 29.1 µM [activator, single point]

SMILES	activity, positive = re-replication	Potency
CCCc1ccc2oc(C(=O)N(Cc3ccncc3)CC3CCCO3)c(C)c2c1 (centres undefined)		inconclusive: 29.1 µM [activator, single point]
O=C(Nc1ccncc1)c1ccc(Cl)c(S(=O)(=O)N2CCc3ccccc32)c1		inconclusive: 20.6 µM [activator, partial curve, poor fit]
COc1nc(-c2ccccc2)cc(-c2ccc(OC)c(OC)c2)n1		inconclusive: 23.1 µM [activator, single point]
CCCCN(CC)CCNC(=O)CCC(=O)Nc1ccc2nc(N3CCN(C)CC3)cc(C)c2c1		inconclusive: 23.1 µM [activator, single point]
Cc1ccc(S(=O)(=O)Oc2ccc(C)cc2/C=N/N=C2\NC(=O)C(C)S2)cc1 (centres undefined)		inconclusive: 16.4 µM [activator, single point]
O=C(O)/C=C/c1ccc(OCc2cccc(F)c2)cc1		inconclusive: 20.6 µM [activator, partial curve, poor fit]
COc1cccc(CC(=O)N2CCC(n3nccc3NC(=O)C3CCOC3)CC2)c1 (centres undefined)	inactive: -3.98%	
Cc1ccccc1OCC(=O)Nc1ccccc1-c1ccccc1		inconclusive: 3.66 µM [activator, partial curve, poor fit]
CC(=O)Nc1ccc(S(=O)(=O)N2c3ccc(F)cc3CCC2C)cc1 (centres undefined)		inconclusive: 20.6 µM [activator, single point]
COC(=O)c1sccc1NC(=S)N1CC(C)CC(C)C1 (centres undefined)		inconclusive: 23.1 µM [activator, single point]
CC(C)(C)Nc1nc(SCC(=O)Nc2ccccc2Cl)nc(N2CCOCC2)n1		inconclusive: 25.9 µM [activator, single point]
Cc1ccc(-c2csc3ncnc(N4CCN(c5ccccc5O)CC4)c23)cc1		inconclusive: 18.4 µM [activator, single point]
CC(=O)Nc1ncc(Cc2cccc(Cl)c2Cl)s1		inconclusive: 29.1 µM [activator, single point]
O=S(NCc1ccco1)C12CC3CC(CC(C3)C1)C2 (centres undefined)		active: 20.6 µM
COc1ccc2c(c1)c1nc3ccccc3nc1n2Cc1ccc(OC(C)C)c(OC)c1		inconclusive: 20.6 µM [activator, single point]
CCCCCCC(=O)Nc1nc(C)c(-c2csc(Nc3cc(Cl)ccc3C)n2)s1		inconclusive: 0.651 µM [activator, partial curve, poor fit]
CCCCCN(C(=O)CN1CCC(Cc2ccccc2)CC1)c1c(N)n(CCCC)c(=O)[nH]c1=O		inconclusive: 18.4 µM [activator, single point]
COc1cc2nc(CN(C)Cc3nc4ccccc4c(=O)[nH]3)[nH]c(=O)c2cc1OC		inconclusive: 29.1 µM [activator, single point]
CC(=O)O[C@H]1C(=O)[C@@]2(C)[C@H]([C@H](OC(=O)c3ccccc3)[C@]3(O)C[C@H](OC(=O)[C@H](O)[C@@H](NC(=O)c4ccccc4)c4ccccc4)C(C)=C1C3(C)C)[C@]1(OC(C)=O)CO[C@@H]1C[C@@H]2O		inconclusive: 21.1 nM [activator, full curve, poor fit] and inconclusive: 58 nM [activator, full curve, poor fit]
